The supplement of paper PMC3724861
The other results are listed elsewhere or left out.

What follows are sequences tested on T1, Caupolican (Caup) homeodomain DNA-binding domain (assay: PBM E-score (8-mer, recovered from the published 9-mer minima) (E-score (dimensionless, -0.5 to 0.5)); Drosophila protein; higher = stronger relative binding preference, active = 0.31 or more).
T1 sequence: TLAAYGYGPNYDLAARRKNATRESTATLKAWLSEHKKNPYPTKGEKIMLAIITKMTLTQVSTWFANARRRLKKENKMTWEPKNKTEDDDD
Experimental: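 Protein binding microarray (PBM): in vitro transcribed/translated Caupolican (Caup) homeodomain DNA-binding domain (residues 214-303) applied at 100 nM to a universal 8-mer PBM array (Agilent AMADID 015681). The 8-mer enrichment score (E-score, range -0.5 to 0.5) was computed, and each 9-mer score is the minimum E-score of its two constituent 8-mers. The E-score is the same for a 9-mer and its reverse complement; 0.31 is the stated binding threshold.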

Sequence	PBM E-score
TGTAAGAA	inactive: 0.246
AAACAGTT	inactive: 0.0695
GATTGGCC	inactive: -0.144
GCTACAGC	inactive: 0.00194
ACTGCCGA	≥ -0.0979
CACACAAC	inactive: 0.14
ATGCTGCA	≥ 0.0786
ACTTTTCT	inactive: 0.0217
GCCCCCCA	inactive: -0.383
AGTTGCAA	inactive: 0.115
AAGACTCA	inactive: 0.0289
AGTAGCAT	inactive: 0.0961
AAACTTGA	inactive: -0.0364
ACGCACTC	inactive: -0.0124
AACGTGTG	inactive: 0.111
ATGCTAAG	inactive: 0.00253
AAGAGCCT	≥ -0.0548
ATATTGTC	inactive: 0.219
CAGACACG	inactive: 0.164
GCCCAACC	inactive: -0.0162
CTCCAATC	inactive: -0.117
CTCGGAGA	inactive: -0.209
ATATCTAA	inactive: 0.18

Sequence	PBM E-score
AAATCGGG	inactive: -0.11
TCTTAAGA	inactive: -0.032
GATACAGC	inactive: 0.0929
CTGATTGC	inactive: -0.00533
ACGCTCAC	inactive: -0.0193
GTCAGATA	inactive: 0.0913
CTAATCTA	inactive: 0.113
CTGCTGAC	inactive: -0.0459
GAACACGC	inactive: 0.254
ATCATAGC	inactive: 0.0632
AGAACAGC	inactive: 0.0474
GAACTACC	inactive: 0.0628
AAACCATG	inactive: 0.146
TGACGTCA	≥ 0.0555
GTCCTAGA	inactive: -0.0212
ACGCGGCG	inactive: -0.153
GACGATCC	inactive: -0.0421
ACCTTTCA	inactive: -0.0249
AAGTGCCC	inactive: -0.126
CTATGGGA	inactive: -0.0218
AACTTTTG	inactive: 0.123
GGCTATAC	inactive: -0.0714
CTAGCCAG	inactive: -0.164

Sequence	PBM E-score
CAGCATTA	inactive: 0.126
AAGCACAA	≥ 0.124
AATCTCGC	inactive: -0.0304
CTACAAAC	inactive: 0.114
CCTCAACG	inactive: -0.112
GACCCCCA	inactive: -0.371
ATCATTCC	inactive: 0.0629
CTTCGTAC	inactive: -0.0255
ACCTAACT	inactive: 0.118
AGGTGAAC	inactive: 0.0123
GAATCCGA	inactive: 0.0448
GATGTGGA	inactive: 0.0997
AGACCAAA	inactive: -0.101
CTATACTA	≥ 0.219
CAAACATA	inactive: 0.292
ACGTGATC	inactive: 0.129
ATGTTCGG	inactive: 0.244
GCAATTAA	inactive: 0.0581
AAGGAGAG	inactive: -0.153
AAACGTAG	inactive: 0.0552
AAGGACTC	inactive: -0.00964
ATTAGCGC	inactive: 0.0167
ACCCGCCT	inactive: -0.135

Sequence	PBM E-score
AACAGTTG	inactive: 0.0731
TCGAGCCA	inactive: -0.096
ACCTTTTG	inactive: -0.0922
AGTGAGGG	inactive: -0.172
CGGAAACG	inactive: -0.0861
CTCCAGTC	inactive: -0.121
GTACGCGA	inactive: 0.0403
GCTATCAC	inactive: -0.0224
TCTCAGCA	inactive: -0.0623
ATATCCGG	inactive: 0.0333
CCTGGTTA	inactive: 0.0806
ACAAATTG	inactive: 0.247
CGACCGAC	inactive: -0.023
TGGGCGAA	≥ -0.0696
GAACCGGA	inactive: -0.0422
TATTCGGA	inactive: 0.0441
GAACGCAC	inactive: -0.0368
ACGTCCTA	inactive: -0.0249
CAAAGACA	inactive: 0.145
AGTAATCA	inactive: 0.168
AGGATGCA	inactive: -0.0185
TACGCACA	inactive: 0.0359
CAGTCGGG	inactive: -0.145

Sequence	PBM E-score
CCACTCGC	inactive: -0.129
ACAAATAA	inactive: 0.241
CGCTGGGC	inactive: -0.236
AGGTCCGC	inactive: -0.229
CGATCGCA	inactive: 0.0422
ATGCAGGG	inactive: -0.141
GGACCTGA	inactive: -0.0838
AAAGCTAA	inactive: 0.0223
CTCTGAAC	inactive: -0.0015
CGGATGAC	inactive: -0.0842
CGCATTGA	inactive: -0.0262
ATTCAGGG	inactive: -0.0511
CGCTTGAC	inactive: -0.0318
GACCCTAA	inactive: -0.0674
GAGTTTAA	inactive: -0.0073
CGTATTAC	inactive: 0.0808
CCTGCTGA	≥ 0.0216
CCCCTCTA	inactive: -0.134
AAGGTCAC	inactive: -0.0469
TCAGAAAA	inactive: 0.0467
GAGCAAGC	inactive: -0.118
AACTACAG	inactive: 0.177
